Measured values taken from the RNAGym collection of RNA variant scans (doi:10.7554/elife.90254).
The source gives no read counts; variants with many changes may rest on few reads.

B1: LINE1-mini (parent)
chain: GGCAGAGCUCAACACAGCGUGGCAAAGUGGCUGUGGCUAGACUGCC

Variants of: B1
Assay: self-cleavage, relative activity (ratio to wild type); higher = more cleavage; in vitro, sequencing; the parent is a self-cleaving ribozyme

Variant	self-cleavage
A4U A11U C15A G33A	0.02
C8G C18A U28G U34A	0.03
C10G C23G A41U C42U	0.03
A11G A25U G40A	0.01
G5C C23G G27U U38G	0.01
G19U G22U A24G U28C G30U A41G G44A	0.04
C3A A14C G22A G29U	0.44
G19U U38C G40U	0.01
C3G C8G C15A U20G	0.03
C3G C10U A11U A14G G21A A25U C37A	0.03
G1C U9G U20C	0
U9C C31A C45G C46U	0.03
C15G G33U A39G	0.02
C23A G33C U43C	0.01
A4U G5C G7U	0.22
G1U C3U G5U A11G A14G A25G C42A	0.01
G22U C23A G40A U43G	0.04
A4C C10A A14G U34C	0
G17C G29U G30C	0.06
C10A C13G G36C	0.03
A6C C10A G17A G30A	0.04

Variant	self-cleavage
C13G G22U U32C	0.14
C13A G21C A24G G33A G36U C46U	0.04
A6C C10G C23A A39U C45G	0.01
C10A G19C A26C	0.04
C3G G7A C31A A41C	0.09
G5U C8G G17C U20A C23U A39G	0.04
G5A U9A U28A G40U	0.12
C3G G29A G40C C46U	0.03
U9C G17U C18G	0.02
A26G U28C U32A	0.15
G21C A26G G29U	0.1
A26C C37A C42A U43G C46A	0
C3U C15U C18A G44C	0.05
C31U C37A A39U	0.2
A6U G19C G35U	0.63
C3U C10A G21C G29U U32C A39C	0.02
G2U A4U U20A U32G	0.06
A11U A25U U32A	0.03
A4C G35U C37U A41G	0.02
G1U G5U U9C G22U	0.02
A4G A6C A41G	1.04

Variant	self-cleavage
A4C G7A A16C G27U A39U	1.06
A25C G35C G36U	0.02
C13U G33A G35C	0.06
G19C G22U C45G	0.47
G1U C13A U38G C42U	0.04
G2C C3A A4C	0.07
G1C G5C G30C U38G	0
C3U A4U G17U A41U	0.02
U38C C42G U43C	0.11
G2C A12U C23A C42U C45A	0
C10U C15U G19U A25C	0.43
C23A G30C G40A C42U	0.03
A4U A16U U38G	0
G2U G30A U38C	0.05
C3U G19A A26U	0.24
C10G C31G G36A G44A	0.01
A6G G27U G29C G44U C46A	0.01
A24U G36U C45A	0.19
C3A U20G G27C G33A	0.04
C10U G33U G44C	0.02
G2A A14C U28C	0.06

Variant	self-cleavage
A12C A14U G19A U20A A25G U28G C31U G35A G40A	0
C13G U34G C37G	0
A12C A16U C23U	0.01
C15U A39U C45U	0.36
C10G C13U A16U	0.03
G2C G21U G44A	0.2
G1U C13A C15A G35C	0.27
A26U G33A U38A G40U	0.11
C3A A14G G35U	0.49
A6C A11U G19A	0.05
G1A G5U G40U	0.06
C13U G22C U34A U43C	0.03
G5U C13G C18A A41G	0.02
G19C C42U C46A	0.07
G5U G27A G30A C46A	0.09
A26G G44U C45U	0.03
A4U G22C U32C C37U	0.01
A14C C18U G33U	0.05
G7C C23A A26G G29U	0.26
C15A G30U C31A G33C	0
G2A C10U G36A	0.3
